Results: US12077501B2, “Compounds and compositions for intracellular delivery of agents” (ModernaTX, Inc., priority 2017, dated 2024)
“And” between values parts separate entries of the source, which are not always exact repeats. Identical values can stand only once. For some assays here: At least one read-out could not be matched to a standard name with certainty. For some assays here: At least one compound was matched to its structure with a doubt left.

Legend:
[1] = Lipid purity change after storage in EtOH for 96 h at 25 or 37 °C; assay type: physicochemical
Method: Nanoparticle compositions including a therapeutic and/or prophylactic agent can be optimized according to the selection of a compound according to one of formulae (I), (Ia1)-(Ia10), (Ib), (Ic), (Id), (Id1)-(Id10), (Ie), (Ie1)-(Ie6), (II), (IIa), (III), and (IIIa), the selection of additional lipids, the amount of each lipid in the lipid component, and the wt:wt ratio of the lipid component to the therapeutic and/or prophylactic agent, as described herein. Initial studies were performed to compare the delivery efficiency of nanoparticle compositions including various compounds according to one of formulae (I), (Ia1)-(Ia10), (Ib), (Ic), (Id), (Id1)-(Id10), (Ie), (Ie1)-(Ie6), (II), (IIa), (III), and (IIIa). The cationic lipid MC3 is a current standard in the art. Also determined was the stability of nanoparticles of the disclosure, i.e., the purity after storage in EtOH for 96h at 25° C. or 37° C. (Table Id).

[2] = Particle size and polydispersity index of nanoparticle compositions (Zetasizer Nano ZS); assay type: physicochemical
Method: A Zetasizer Nano ZS (Malvem Instruments Ltd, Malvem, Worcestershire, UK) can be used to determine the particle size, the polydispersity index (PDI) and the zeta potential of the nanoparticle compositions in 1×PBS in determining particle size and 15 mM PBS in determining zeta potential.

[3] = Encapsulation efficiency of RNA (QUANT-IT RIBOGREEN RNA assay); assay type: physicochemical
Method: For nanoparticle compositions including an RNA, a QUANT-IT™ RIBOGREEN® RNA assay (Invitrogen Corporation Carlsbad, CA) can be used to evaluate the encapsulation of an RNA by the nanoparticle composition. The samples are diluted to a concentration of approximately 5 μg/mL in a TE buffer solution (10 mM Tris-HCl, 1 mM EDTA, pH 7.5). 50 μL of the diluted samples are transferred to a polystyrene 96 well plate and either 50 μL of TE buffer or 50 μL of a 2% Triton X-100 solution is added to the wells. The plate is incubated at a temperature of 37° C. for 15 minutes. The RIBOGREEN® reagent is diluted 1:100 in TE buffer, and 100 μL of this solution is added to each well. The fluorescence intensity can be measured using a fluorescence plate reader (Wallac Victor 1420 Multilablel Counter; Perkin Elmer, Waltham, MA) at an excitation wavelength of, for example, about 480 nm and an emission wavelength of, for example, about 520 nm. The fluorescence values of the reagent blank are subtracted from that of each of the samples and the percentage of free RNA is determined by dividing the fluorescence intensity of the intact sample (without addition of Triton X-100) by the fluorescence value of the disrupted sample (caused by the addition of Triton X-100).

hEPO expression [4] = experiment: hEPO expression in CD-1 mice compared with MC3; assay type: in vivo
Excerpt: In contrast, hEPO expression in rats induced by administration of a nanoparticle composition including a compound according to one of formulae (I), (Ia1)-(Ia6), (Ib), (II), (IIa), (III), and (IIIa) was substantially […] than that measured for MC3. […] Tables 7c and 7d show additional protein expressions and clearance data from compositions with various compounds disclosed herein as compared to with MC3. Tables 7e, 7f and 7g show hEPO expression data in CD-1 mice at a dose of 0.5 mpk.

hEPO expression [5] = experiment: hEPO (miR126 + miR142) mRNA expression, Tables 8b-8e; assay type: in vivo
[6] = Table 1c, nanoparticle compositions
[7] = lipid:Chol:PEG 1 50:47.5:2.5, Table 8e
[8] = intravenous, 0.5 mpk, Table 7e, 0.5 mg/kg
[9] = Table 1d, Formulated with lipid:Chol:DOPE:PEG 1 40:38.5:20:1.5

Compound: CCCCCCCCCN(CCCOC(=O)CC(C)CCC)CCC1CCN(C(=O)CN(CCCCCCCCC)CCN(CCCCCCCCC)CCCCCCCCC)CC1 (centres unmarked) [Compound 133, 3-((2-(1-(N-(2-(Dinonylamino)ethyl)-N-nonylglycyl)piperidin-4-yl)ethyl)(nonyl)amino)propyl 3-methylhexanoate]
- Lipid % change purity in EtOH, 25° C., 96 h [1]: −0.29%
- Lipid % change purity in EtOH, 37° C., 96 h [1]: 1.68%
- PDI [2, 6]: 0.24
- Size (nm) [2, 6]: 88.2 nm
- EE (%) [3, 6]: 98.6%

Compound: CCCCCCCCCCCCCCN(CCCCCCCCCCCC(=O)OC)CCC1CCCN(C(=O)CN(CCCCCCCCC)CCN(CCCCCCCCC)CCCCCCCCC)C1 (centres unmarked) [Compound 123, Methyl 12-((2-(1-(N-(2-(dinonylamino)ethyl)-N-nonylglycyl)piperidin-3-yl)ethyl)(tetradecyl)amino)dodecanoate]
- Lipid % change purity in EtOH, 25° C., 96 h [1]: 1.6%
- Lipid % change purity in EtOH, 37° C., 96 h [1]: 3.1%
- PDI [2, 6]: 0.21
- Size (nm) [2, 6]: 85.1 nm
- EE (%) [3, 6]: 98.7%
- Lipid/MC3 AUC (hEPO expression [4]; intravenous, 0.5 mpk, Table 7e): 1.38

Compound: CCCCCC=CCC=CCCCCCCCCC(CCCCCCCCC=CCC=CCCCCC)OC(=O)CCCN(C)C (centres unmarked) [MC3, heptatriaconta-6,9,28,31-tetraen-19-yl 4-(dimethylamino)butanoate, reference compound]
- Lipid/MC3 AUC (hEPO expression [5]; Table 8c): 1.00
- Lipid/MC3 AUC (hEPO expression [5]; Table 8d): 1.00
- Lipid/MC3 AUC (hEPO expression [5]; [7]): 1.00
- AUC (p/s*h) CD-1 mice 0.5 mpk (hEPO expression [4]; [8]): 3.77E+07 p/s*h and 4.23E+07 p/s*h

Compound: CCCCCCCCCOC(=O)CCCCCCCN(CCCCCCCC(=O)OC(CCCCCCCC)CCCCCCCC)CCCCC(=O)N(C)CCCN(C)C(=O)CCCCN(CCCCCCCC(=O)OCCCCCCCCC)CCCCCCCC(=O)OC(CCCCCCCC)CCCCCCCC [Compound 182, Di(heptadecan-9-yl) 15,19-dimethyl-9,25-bis(8-(nonyloxy)-8-oxooctyl)-14,20-dioxo-9,15,19,25-tetraazatritriacontanedioate]
- Lipid/MC3 AUC (hEPO expression [5]; Table 8d): 0.09

Compound: CCCCCCCCCCCCCCNC(=O)CN(CCCCCCCCC)CCN(CCCCCCCCC)CCCCCCCCC [Compound 163, 2-((2-(dinonylamino)ethyl)(nonyl)amino)-N-tetradecylacetamide]
- Lipid/MC3 AUC (hEPO expression [5]; Table 8c): 0.67

Compound: CCCCCCCCCCN(CCCCCCCCCC)CCCC(=O)N1CCN(C(=O)CCCN(CCCCCCCCCC)CCCCCCCCCC)CC1 [Compound 146, 1,1′-(Piperazine-1,4-diyl)bis(4-(didecylamino)butan-1-one)]
- PDI [2, 9]: 0.15
- Size (nm) [2, 9]: 97.5 nm
- EE (%) [3, 9]: 97.6%
- Lipid/MC3 AUC (hEPO expression [5]; Table 8b): 0.71

Compound: CCCCCCCCCCN(CCCCCCCCCC)CCCCC(=O)N1CCN(C(=O)CCCCN(CCCCCCCCCC)CCCCCCCCCC)CC1 [Compound 164, 1,1′-(Piperazine-1,4-diyl)bis(5-(didecylamino)pentan-1-one)]
- Lipid/MC3 AUC (hEPO expression [5]; Table 8c): 0.27

Compound: CCCCCCCCCN(CCCCCCCCC)CCN(CCCCCCCCC)CC(=O)NCCCCOC(=O)CCCC [Compound 165, 4-(2-((2-(dinonylamino)ethyl)(nonyl)amino)acetamido)butyl pentanoate]
- Lipid/MC3 AUC (hEPO expression [5]; Table 8c): 6.17

Compound: CCCC/C=C\CCCCCCCCN(CCCOC(=O)CCCCCCCCC)CC(=O)N1CCN(C(=O)CN(CCCCCCCCC)CCN(CCCCCCCCC)CCCCCCCCC)CC1 [Compound 140, (Z)-3-((2-(4-(N-(2-(Dinonylamino)ethyl)-N-nonylglycyl)piperazin-1-yl)-2-oxoethyl)(tetradec-9-en-1-yl)amino)propyl Decanoate]
- Lipid/MC3 AUC (hEPO expression [5]; Table 8b): 2.56

Compound: CCCCCCCCCCCCCCN(CCCCCC(=O)OCCCCCCC)CCC1CCN(C(=O)CN(CCCCCCCCC)CCN(CCCCCCCCC)CCCCCCCCC)C1 (centres unmarked) [Compound 125, Heptyl 6-((2-(1-(N-(2-(dinonylamino)ethyl)-N-nonylglycyl)pyrrolidin-3-yl)ethyl)(tetradecyl)amino)hexanoate]
- Lipid % change purity in EtOH, 25° C., 96 h [1]: 0%
- Lipid % change purity in EtOH, 37° C., 96 h [1]: 0.8%
- PDI [2, 6]: 0.24
- Size (nm) [2, 6]: 85.7 nm
- EE (%) [3, 6]: 99.0%
- Lipid/MC3 AUC (hEPO expression [4]; intravenous, 0.5 mpk, Table 7e): 0.19

Compound: CCCCCCCCCOC(=O)CCCCCCCN(CCCCCCCC(=O)OC(CCCCCCCC)CCCCCCCC)CCCCC(=O)N1CCN(C(=O)CCCCN(CCCCCCCC(=O)OCCCCCCCCC)CCCCCCCC(=O)OC(CCCCCCCC)CCCCCCCC)CC1 [Compound 184, Di(heptadecan-9-yl) 8,8′-((piperazine-1,4-diylbis(5-oxopentane-5,1-diyl))bis((8-(nonyloxy)-8-oxooctyl)azanediyl))dioctanoate]
- Lipid/MC3 AUC (hEPO expression [5]; Table 8d): 0.61

Compound: CCCCCCCCCOC(=O)CCCCCCCN(CCCCCCCC(=O)OC(CCCCCCCC)CCCCCCCC)CCCCC(=O)OC(C)C(C)OC(=O)CCCCN(CCCCCCCC(=O)OCCCCCCCCC)CCCCCCCC(=O)OC(CCCCCCCC)CCCCCCCC (centres unmarked) [Compound 186, Di(heptadecan-9-yl) 8,8′-(26,27-dimethyl-11,24,29,42-tetraoxo-10,25,28,43-tetraoxa-19,34-diazadopentacontane-19,34-diyl)dioctanoate]
- Lipid/MC3 AUC (hEPO expression [5]; Table 8d): 0.03

Compound: CCCCCCCCCCCCCCN(C/C=C\COC(=O)CCCCCCCC)CC(=O)N1CCN(C(=O)CN(CCCCCCCCC)CCN(CCCCCCCCC)CCCCCCCCC)CC1 [Compound 141, (Z)-4-((2-(4-(N-(2-(dinonylamino)ethyl)-N-nonylglycyl)piperazin-1-yl)-2-oxoethyl)(tetradecyl)amino)but-2-en-1-yl nonanoate]
- Lipid/MC3 AUC (hEPO expression [5]; Table 8b): 1.52

Compound: CCCCCCCCCN(CCCCCCCCC)CCN(CCCCCCCCC)CC(=O)OCCOC(=O)CN(CCCCCCCCC)CCCCCCCCC [Compound 150, 2-((N-(2-(Dinonylamino)ethyl)-N-nonylglycyl)oxy)ethyl dinonylglycinate]
- Lipid % change purity in EtOH, 25° C., 96 h [1]: 25.9%
- Lipid % change purity in EtOH, 37° C., 96 h [1]: 52.5%
- PDI [2, 6]: 0.22
- Size (nm) [2, 6]: 70.1 nm
- EE (%) [3, 6]: 96.9%
- Lipid/MC3 AUC (hEPO expression [4]; intravenous, 0.5 mpk, Table 7e): 0.01

Compound: CCCCCCCCCN(CCCCCCCCC)CCCCCCCCN(CCCCCCCCC)CCN(CCCCCCCCC)CCCCCCCCC [Compound 160, N^1-(2-(dinonylamino)ethyl)-N^1,N^8,N^8-trinonyloctane-1,8-diamine]
- Lipid/MC3 AUC (hEPO expression [5]; Table 8b): 0.01

Compound: CCCCCCCCCN(CCCCCCCCC)CCN(CCCCCCCCC)CC(=O)OC(C)C(C)OC(=O)CN(CCCCCCCCC)CCCCCCCCC (centres unmarked) [Compound 188, 3-((N-(2-(dinonylamino)ethyl)-N-nonylglycyl)oxy)butan-2-yl dinonylglycinate]
- Lipid/MC3 AUC (hEPO expression [5]; Table 8d): 0.01

Compound: CCCCCCCCCN(CCCCCCCCC)CCN(CCCCCCCCC)CC(=O)N1CCN(C(=O)CN(CCCCCCCCC)CCCCCCCCC)CC1 [Compound 4, 2-(Dinonylamino)-1-(4-(N-(2-(dinonylamino)ethyl)-N-nonylglycyl)piperazin-1-yl)ethan-1-one]
- Lipid/MC3 AUC (hEPO expression [5]; Table 8b): 3.77
- Lipid/MC3 AUC (hEPO expression [5]; Table 8c): 5.57
- Lipid/MC3 AUC (hEPO expression [5]; Table 8d): 2.63
- Lipid/MC3 AUC (hEPO expression [5]; [7]): 12.31
- Lipid/MC3 AUC (hEPO expression [4]; intramuscular, title: 0.01 mg/kg, Table 7f): 13.2
- AUC (p/s*h) CD-1 mice 0.5 mpk (hEPO expression [4]; [8]): 2.26E+08 p/s*h and 1.88E+08 p/s*h
- Lipid/MC3 AUC (hEPO expression [4]; [8]): 6.00 and 4.46
- Lipid/MC3 AUC (hEPO expression [4]; subcutaneous, 0.5 mg/kg, Table 7g): 2.29

Compound: CCCCCCCCCOC(=O)CCCCCCCN(CCCCCCCC(=O)OC(CCCCCCCC)CCCCCCCC)CCOCCOCCN(CCCCCCCCC)CCCCCCCCC [Compound 174, Heptadecan-9-yl 18-nonyl-9-(8-(nonyloxy)-8-oxooctyl)-12,15-dioxa-9,18-diazaheptacosanoate]
- Lipid/MC3 AUC (hEPO expression [5]; [7]): 2.24
